Reference: PubChem BioAssay (NCATS)
Inconclusive means that the source gave no clear call. Such entries were picked first, then a sample of the others. For part of these data: A potency beside an inconclusive call is a rough fit, not a confirmed value. For part of these data: “Side channel” marks fits to a control or component signal instead of the main read-out. The source made the active and inactive calls. Unless noted, calls come from the whole dose curve; as a rule, active = well fitted curve in either direction with a large enough effect (not every such curve was filed as active); inconclusive = small, poorly fitted or top-dose-only effect, or another doubt; inactive = flat fitted curve, though single readings scatter.

Experiments:
[1] = AP1 Signaling Pathway (AID 357); conditions: ME-180 AP-1-bla reporter, EGF-induced, beta-lactamase ratio, 5 h; at 17.2 µM (top of the series) unless noted;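 note: ME-180 reporter cells stimulated with EGF at its EC50 level; top concentration of the series differs between compounds; % is set by controls: 0 for no effect and ±100 for the full control effect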
Outline: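 Read-out was the 460nm/530nm emission ratio (excitation 405nm) after CCF4 loading for 2.5 hours at room temperature. Cells carried an AP-1-driven beta-lactamase reporter, were stimulated with EC50 EGF plus compound for 5 hours, and AC50 values came from titrations.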

[2] = NFAT Signaling Pathway (AID 444); conditions: Jurkat NFAT-bla M1, carbachol, beta-lactamase ratio, 5 h; at 17.2 µM (top of the series) unless noted;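 note: carbachol stimulus at about its EC50 of 1 µM final; % is set by controls: 0 for no effect and ±100 for the full control effect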
Outline: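 Jurkat cells with NFAT-driven β-lactamase reporter and co-expressed M1 receptor, stimulated with carbachol (final 1 uM, ~EC50), compound titration, 5 h at 37 °C. CCF4 loaded 1 h at RT; 460/530 nm ratio gave %activity and AC50.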

[3] = target: Mitogen-activated protein kinase 10 (Mus musculus) (UniProt Q61831); test: JNK3 AlphaScreen Assay (AID 530); conditions: JNK3 lysate, c-Jun phosphorylation; activity change, negative = inhibition: at 57.1 µM (top of the series);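 note: kinase came from lysate of stimulated human HepG2 cells; signal reports phosphorylation of biotinylated GST-cJun 1-79 at Ser73 with 10 µM ATP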; note: potency is the fitted concentration of half-maximal effect; for activity change, negative = inhibition: % is set by controls: 0 for no effect and ±100 for the full control effect
Outline: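 HepG2 lysate (IL-1b/TNFa pre-activated) + biotin-GST-cJun 1-79 + anti-pSer73 cJun; cpd titration, 15 min RT; ATP 10 uM start; Tris pH 7.6, MgCl2, DTT, vanadate; beads in EDTA buffer; AlphaScreen.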

[4] = qHTS Assay for Identification of Small Molecule Antagonists for NFkB Signaling Pathway (AID 895; active = well fitted inhibition curve with a large enough effect in the signal ratio, with a control signal flat, not every such curve was filed as active; inconclusive = small, poorly fitted or top-dose-only effect, or effect the other way, or a change in a side signal; the % refers to the signal ratio; note: potency is the fitted concentration of half-maximal effect); conditions: NFkB beta-lactamase reporter cells, FRET ratio 460/530, stimulated with 10 pM TNF alpha; activity change, negative = inhibition: at 38.3 µM (top of the series)
Outline: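 ME-180 NFkB-bla cells (beta-lactamase under NFkB response element), plated overnight, treated with compound then 10 pM TNF alpha (about EC50) for 5 hrs at 37 C. LiveBLAzer FRET read at 460/530 nm emission, 405 nm excitation.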

[5] = qHTS Assay for Identification of Small Molecule Agonists for Hypoxia Response Element Signaling Pathway (AID 914; active = well fitted activation curve with a large enough effect in the signal ratio, with a control signal flat, not every such curve was filed as active; inconclusive = small, poorly fitted or top-dose-only effect, or effect the other way, or a change in a side signal; the % refers to the signal ratio; note: potency is the fitted concentration of half-maximal effect; for activation: top concentration of the series differs between compounds; % of control where 0% means no effect); conditions: ME-180 (cervical carcinoma) HRE-bla reporter, beta-lactamase ratio, CoCl2, 17 h; activation: hits give high values
Outline: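 AC50 values come from titration-series %Activity, taken as the 460/530nm ratio of CCF4 fluorescence (excitation 405nm). CellSensor HRE-bla ME-180 cells were treated 17 hours at 37 C with compound plus an EC50 level of CoCl2.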

[6] = qHTS Assay for Identification of Small Molecule Agonists for Thrombopoietin (TPO) Signaling Pathway (AID 917; active = well fitted curve in the direction sought with a large enough effect; inconclusive = small, poorly fitted or top-dose-only effect, or another doubt; inactive = no such curve, though single readings can be large; an effect the other way counts as inactive or inconclusive; note: potency is the fitted concentration of half-maximal effect); conditions: TPO signaling pathway reporter cells, agonist qHTS, stimulated with TPO at its EC50; activity, positive = activation: at 38.5 µM (top of the series)
Outline: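 Ba/F3 (mouse) + hTPO receptor + GpIIb-promoter luciferase; IL-3 withdrawn overnight; compound + 26 pM TPO (EC50), 24 hrs, 37 C, 5% CO2; Steadylite luminescence, 10 min RT.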

[7] = qHTS Assay for Identification of Small Molecule Agonists for NFkB Signaling Pathway (AID 928; calls by dose curve); conditions: NFkB beta-lactamase reporter cells, blue/green ratio
Outline: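 Activators were sought with TNF alpha co-added at 10 pM final (its EC50) to beta-lactamase reporter cells. Cells were plated in OPTI MEM with 0.5% FBS and exposed for 5 hrs at 37 C. The FRET substrate ratio was read at 460 and 530 nm.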

[8] = target: Muscarinic acetylcholine receptor M1 (Rattus norvegicus) (UniProt P08482); test: qHTS Assay for Antagonists of Acetylcholine Muscarinic M1 Receptor: Measurement of IP-One Response (AID 944; active = well fitted curve in the direction sought with a large enough effect; inconclusive = small, poorly fitted or top-dose-only effect, or another doubt; inactive = no such curve, though single readings can be large; an effect the other way counts as inactive or inconclusive; note: potency is the fitted concentration of half-maximal effect; nearly all actives have a fitted effect of over 75% in size)
UniProt P08482, sequence (P08482 whole entry, looked up): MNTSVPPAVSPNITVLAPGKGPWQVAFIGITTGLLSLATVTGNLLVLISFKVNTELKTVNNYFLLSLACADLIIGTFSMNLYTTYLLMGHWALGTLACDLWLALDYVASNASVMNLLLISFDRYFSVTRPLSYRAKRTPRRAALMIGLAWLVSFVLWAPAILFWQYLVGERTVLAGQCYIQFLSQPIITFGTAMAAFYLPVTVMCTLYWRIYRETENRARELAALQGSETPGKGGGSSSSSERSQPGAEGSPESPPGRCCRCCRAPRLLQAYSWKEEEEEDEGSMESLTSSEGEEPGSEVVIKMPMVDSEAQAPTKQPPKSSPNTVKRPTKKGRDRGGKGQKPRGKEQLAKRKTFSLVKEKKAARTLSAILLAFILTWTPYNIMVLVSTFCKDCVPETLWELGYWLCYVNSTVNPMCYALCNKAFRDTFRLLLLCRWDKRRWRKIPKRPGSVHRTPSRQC

[9] = target: 3',5'-cyclic-AMP phosphodiesterase 4B (Homo sapiens) (UniProt Q07343); test: qHTS Assay for Inhibitors of PDE-IV (AID 607; active = well fitted activation curve with a large enough effect in the main read-out, with a control signal flat, not every such curve was filed as active; inconclusive = small, poorly fitted or top-dose-only effect, or effect the other way, or a change in a side signal; note: potency is the fitted concentration of half-maximal effect; for activation (PDE inhibition): % of control where 0% means no effect); conditions: HEK293 ACTOne CNG channel cells, membrane potential fluorescence; activation (PDE inhibition): at 22.9 µM (top of the series)
UniProt Q07343, sequence (Q07343 whole entry, looked up): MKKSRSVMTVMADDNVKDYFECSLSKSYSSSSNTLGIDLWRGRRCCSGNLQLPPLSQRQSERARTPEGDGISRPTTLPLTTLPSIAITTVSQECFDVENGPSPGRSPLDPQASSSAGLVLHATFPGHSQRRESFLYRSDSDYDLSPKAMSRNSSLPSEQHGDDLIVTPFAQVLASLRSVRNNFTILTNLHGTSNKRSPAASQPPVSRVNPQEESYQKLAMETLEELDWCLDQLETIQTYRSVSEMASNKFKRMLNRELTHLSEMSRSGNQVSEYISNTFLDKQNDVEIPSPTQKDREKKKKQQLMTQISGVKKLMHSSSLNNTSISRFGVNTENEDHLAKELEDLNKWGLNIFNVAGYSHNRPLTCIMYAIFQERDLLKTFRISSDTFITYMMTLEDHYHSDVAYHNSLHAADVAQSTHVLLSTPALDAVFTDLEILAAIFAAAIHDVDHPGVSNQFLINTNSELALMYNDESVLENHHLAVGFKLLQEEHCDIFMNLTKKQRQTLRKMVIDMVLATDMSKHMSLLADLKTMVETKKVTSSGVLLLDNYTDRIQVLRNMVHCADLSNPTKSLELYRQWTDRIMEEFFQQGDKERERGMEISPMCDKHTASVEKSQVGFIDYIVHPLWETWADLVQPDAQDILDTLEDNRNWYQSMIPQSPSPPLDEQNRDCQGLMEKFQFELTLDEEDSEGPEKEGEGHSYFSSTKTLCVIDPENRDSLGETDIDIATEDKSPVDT
Outline: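 HEK293 ACTOne cells with CNG channel (1000/well), endogenous PDE4; membrane potential dye, compounds up to 22.9 uM final. Fluorescence Ex 535/Em 590; RO 20-1724 (100 uM final) as reference.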

[10] = target: Cytochrome P450 2C19 (Homo sapiens) (UniProt P33261); test: qHTS Assay for Inhibitors and Substrates of Cytochrome P450 2C19 (AID 899; active = well fitted curve in the direction sought with a large enough effect; inconclusive = small, poorly fitted or top-dose-only effect, or another doubt; inactive = no such curve, though single readings can be large; an effect the other way counts as inactive or inconclusive; note: potency is the fitted concentration of half-maximal effect; nearly all actives have a fitted effect of over 60% in size)
UniProt P33261, sequence (P33261 whole entry, looked up): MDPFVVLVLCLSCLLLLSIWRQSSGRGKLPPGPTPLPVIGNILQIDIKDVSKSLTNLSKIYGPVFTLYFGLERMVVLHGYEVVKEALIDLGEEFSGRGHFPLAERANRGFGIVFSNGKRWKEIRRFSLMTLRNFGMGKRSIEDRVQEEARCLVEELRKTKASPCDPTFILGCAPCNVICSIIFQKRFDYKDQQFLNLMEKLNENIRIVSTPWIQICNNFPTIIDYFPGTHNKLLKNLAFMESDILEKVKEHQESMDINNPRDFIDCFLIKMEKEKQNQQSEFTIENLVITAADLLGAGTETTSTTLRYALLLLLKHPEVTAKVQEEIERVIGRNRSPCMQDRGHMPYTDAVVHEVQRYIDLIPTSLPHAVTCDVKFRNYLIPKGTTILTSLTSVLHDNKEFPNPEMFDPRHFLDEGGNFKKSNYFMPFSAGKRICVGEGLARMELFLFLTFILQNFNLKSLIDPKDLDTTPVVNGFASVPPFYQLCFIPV
Outline: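 Luminescent read-out of luciferin formed from Luciferin-H EGE (10uM, equal to KM). Enzyme 5nM in 50mM KPO4; compound added, 10 min at 37C, then NADPH regenerating system for 60 min at 37C. Full inhibition defined by 57uM ketoconazole.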

[11] = target: Muscarinic acetylcholine receptor M1 (Rattus norvegicus) (UniProt P08482); test: qHTS Assay for Antagonists of Acetylcholine Muscarinic M1 Receptor: Kinetic Measurement of Intracellular Calcium Response (AID 943; active = well fitted curve in the direction sought with a large enough effect; inconclusive = small, poorly fitted or top-dose-only effect, or another doubt; inactive = no such curve, though single readings can be large; an effect the other way counts as inactive or inconclusive; note: potency is the fitted concentration of half-maximal effect; nearly all actives have a fitted effect of over 75% in size)
Outline: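 Read-out: peak over basal Fluo-4 fluorescence, kinetic at 1 Hz for 4 min after EC80 carbachol (100 nM final). Rat M1-CHO cells, dye loaded 1 h at 37C, compound added 10 min before agonist.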

[12] = qHTS Assay for Identification of Small Molecule Antagonists for Thrombopoietin (TPO) Signaling Pathway (AID 918; active = well fitted curve in the direction sought with a large enough effect; inconclusive = small, poorly fitted or top-dose-only effect, or another doubt; inactive = no such curve, though single readings can be large; an effect the other way counts as inactive or inconclusive; note: nearly all actives have a fitted effect of over 60% in size); conditions: TPO-dependent cell signaling reporter, antagonist mode; activity change, negative = inhibition: at 38.5 µM (top of the series)
Outline: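 Luminescence read-out: GPIIb-promoter luciferase in Ba/F3 cells carrying human TPO receptor. Compounds added with 26 pM TPO (EC50), 24 hrs, 37 C, 5% CO2; cells deprived of IL-3 overnight beforehand. Inhibition of signal scored.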

[13] = target: ATPase family AAA domain-containing protein 5 (Homo sapiens) (UniProt Q96QE3); test: HTS assay for small molecules that inhibit ELG1-dependent DNA repair in human embryonic kidney (HEK293T) cells expressing luciferase-tagged ELG1: Hit Confirmation (AID 624248; active = well fitted curve in the direction sought with a large enough effect; inconclusive = small, poorly fitted or top-dose-only effect, or another doubt; inactive = no such curve, though single readings can be large; an effect the other way counts as inactive or inconclusive; note: potency is the fitted concentration of half-maximal effect; nearly all actives have a fitted effect of over 55% in size)
UniProt Q96QE3, sequence (Q96QE3 whole entry, looked up, the tested form may be a part): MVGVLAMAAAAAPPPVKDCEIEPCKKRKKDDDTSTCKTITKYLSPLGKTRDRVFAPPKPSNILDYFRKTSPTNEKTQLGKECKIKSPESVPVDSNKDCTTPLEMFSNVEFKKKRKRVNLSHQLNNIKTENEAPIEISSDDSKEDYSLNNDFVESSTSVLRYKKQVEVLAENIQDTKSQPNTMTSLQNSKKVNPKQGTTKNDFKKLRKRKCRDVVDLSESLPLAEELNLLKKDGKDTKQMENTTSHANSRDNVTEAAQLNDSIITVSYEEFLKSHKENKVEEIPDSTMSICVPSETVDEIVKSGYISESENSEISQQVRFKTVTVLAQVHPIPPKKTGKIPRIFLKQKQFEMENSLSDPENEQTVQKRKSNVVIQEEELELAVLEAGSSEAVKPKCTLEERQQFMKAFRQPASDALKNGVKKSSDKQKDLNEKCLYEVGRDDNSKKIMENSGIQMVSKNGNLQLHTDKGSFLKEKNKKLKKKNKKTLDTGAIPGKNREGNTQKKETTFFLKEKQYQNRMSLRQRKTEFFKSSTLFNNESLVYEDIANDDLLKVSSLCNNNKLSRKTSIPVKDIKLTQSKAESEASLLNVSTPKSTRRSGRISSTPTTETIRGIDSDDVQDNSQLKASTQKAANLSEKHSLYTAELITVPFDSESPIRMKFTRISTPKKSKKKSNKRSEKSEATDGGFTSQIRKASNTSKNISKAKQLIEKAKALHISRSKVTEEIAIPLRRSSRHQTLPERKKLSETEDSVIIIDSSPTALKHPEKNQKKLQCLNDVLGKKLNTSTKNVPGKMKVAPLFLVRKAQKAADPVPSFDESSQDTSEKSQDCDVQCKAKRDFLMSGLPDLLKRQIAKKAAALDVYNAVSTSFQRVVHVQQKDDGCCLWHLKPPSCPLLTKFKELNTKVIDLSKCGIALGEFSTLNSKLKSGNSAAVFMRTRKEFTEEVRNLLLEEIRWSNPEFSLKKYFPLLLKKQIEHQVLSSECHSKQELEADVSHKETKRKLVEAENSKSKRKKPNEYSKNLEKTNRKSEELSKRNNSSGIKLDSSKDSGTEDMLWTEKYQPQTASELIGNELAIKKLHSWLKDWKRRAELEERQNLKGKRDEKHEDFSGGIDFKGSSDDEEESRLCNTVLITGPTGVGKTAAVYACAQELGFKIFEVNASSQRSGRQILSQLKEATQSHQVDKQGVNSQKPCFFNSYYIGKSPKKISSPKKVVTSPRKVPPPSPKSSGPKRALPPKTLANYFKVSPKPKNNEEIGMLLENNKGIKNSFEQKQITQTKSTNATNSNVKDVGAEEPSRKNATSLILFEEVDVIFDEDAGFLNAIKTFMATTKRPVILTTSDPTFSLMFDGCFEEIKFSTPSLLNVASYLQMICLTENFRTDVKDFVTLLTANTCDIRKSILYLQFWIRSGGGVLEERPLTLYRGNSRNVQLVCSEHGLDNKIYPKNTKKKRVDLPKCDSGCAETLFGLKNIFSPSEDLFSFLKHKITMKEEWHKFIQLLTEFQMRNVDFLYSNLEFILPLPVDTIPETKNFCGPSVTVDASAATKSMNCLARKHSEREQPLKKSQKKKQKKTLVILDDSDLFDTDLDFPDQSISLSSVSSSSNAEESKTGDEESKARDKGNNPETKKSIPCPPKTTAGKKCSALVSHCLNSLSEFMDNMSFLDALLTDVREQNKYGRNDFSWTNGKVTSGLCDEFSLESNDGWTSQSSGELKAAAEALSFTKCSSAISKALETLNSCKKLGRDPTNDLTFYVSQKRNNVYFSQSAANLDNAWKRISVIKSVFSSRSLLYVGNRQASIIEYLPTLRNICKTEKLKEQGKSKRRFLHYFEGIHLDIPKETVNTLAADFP
Outline: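 HEK293T cells expressing luciferase-tagged ELG1 treated with 5-fluorouridine plus compound for 16 h at 37 C; luciferase activity then measured with ONE-Glo after 30 min at room temperature.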

[14] = target: ATPase family AAA domain-containing protein 5 (Homo sapiens) (UniProt Q96QE3); test: qHTS screen for small molecules that inhibit ELG1-dependent DNA repair in human embryonic kidney (HEK293T) cells expressing luciferase-tagged ELG1: Hit Confirmation using MMS Stimulated ELG1 (AID 624249; active = well fitted curve in the direction sought with a large enough effect; inconclusive = small, poorly fitted or top-dose-only effect, or another doubt; inactive = no such curve, though single readings can be large; an effect the other way counts as inactive or inconclusive;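 note: cells co-treated with MMS at 10 µM final alongside compound; luminescence of ELG1-luciferase fusion read with Amplight reagent; % is set by controls: 0 for no effect and ±100 for the full control effect; nearly all actives have a fitted effect of over 60% in size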)
Outline: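 Luminescence read-out (Amplight) of an ELG1-luc reporter in HEK293T cells after 16 h of compound exposure under MMS stimulation at 10 µM final. Inhibition appears as reduced luciferase activity.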

[15] = qHTS screen for small molecules that inhibit ELG1-dependent DNA repair: Hit Confirmation with MMS Viability (AID 624251; active = well fitted curve in the direction sought with a large enough effect; inconclusive = small, poorly fitted or top-dose-only effect, or another doubt; inactive = no such curve, though single readings can be large; an effect the other way counts as inactive or inconclusive;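 note: potency is the fitted concentration of half-maximal effect; viability read 16 h after compound addition; nearly all actives have a fitted effect of over 60% in size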)
Outline: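 HEK293T ELG1-luc, 2,000 cells/well; cpd pin-transferred ~5 h post-seeding; MMS 10 µM final; 16 h; CellTiter-Glo viability.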
Tags give direction and shape of the fitted curve or compound fluorescence and quenching.

For `N#C[C@@H](Cc1ccc(O)c(O)c1)C(=O)N1CCc2ccccc21`, the activity change, negative = inhibition [1] was inconclusive: -39.3% [inhibitor] [at 38 µM], the activity change, negative = inhibition [2] was inconclusive: -58.1% [inhibitor] [at 38 µM] and the activity change, negative = inhibition [3] was inconclusive: 36.9%. For the same compound, the Potency [4] was active: 10 µM, the Potency [5] was inconclusive: 7.94 µM [inhibitor, partial curve] and the Potency [6] was inconclusive: 10 µM [inhibitor, partial curve]. For the same compound, the Potency [7] was inconclusive: 10 µM [inhibitor, partial curve] and the Potency [8] was inconclusive: 14.1 µM [inhibitor, partial curve, poor fit].

For `CN(C)CCCN1c2ccc(O)cc2Sc2ccc(Cl)cc21`, the activity change, negative = inhibition [1] was inconclusive: 34% [activator] [at 7.69 µM], the activity change, negative = inhibition [2] was inconclusive: -80% [inhibitor] [at 7.69 µM] and the Potency [9] was “inactive”. For the same compound, the Potency [10] was inconclusive: 0.794 µM [inhibitor, single point].

For `CN1CCN([C@@H]2Cc3ccccc3Sc3ccc(Cl)cc32)CC1`, the activity change, negative = inhibition [1] was inconclusive: 37.8% [activator] [at 38 µM], the activity change, negative = inhibition [2] was inconclusive: -52.6% [inhibitor] [at 38 µM] and the Potency [3] was inconclusive: 0.2 µM [activator, partial curve, poor fit]. For the same compound, the Potency [9] was inconclusive: 3.98 µM [rising, full curve, poor fit], the Potency [4] was inconclusive: 25.1 µM [inhibitor, single point] and the Potency [5] was inconclusive: 25.1 µM [inhibitor, partial curve, poor fit]. For the same compound, the Potency [6] was inconclusive: 25.1 µM [inhibitor, single point], the Potency [11] was active: 1.78 µM and the Potency [8] was active: 10 µM.

In the case of `CNCC[C@H](Oc1ccccc1C)c1ccccc1`, the Potency [6] is reported as inconclusive: 31.6 µM [inhibitor, single point].

In the case of `O[Si@](CCCN1CCCCC1)(c1ccc(F)cc1)C1CCCCC1`, the Potency [6] is reported as inconclusive: 12.6 µM [inhibitor, single point].

With `CCCCCCCCCCCCCCCCCC(=O)O[C@H](CC(=O)O)C[N+](C)(C)C` the activity change, negative = inhibition [12] was inconclusive: -19.8% [phenotype inactive].

In the case of `CC1(C)Cc2c(c(N3CCOCC3)nc3sc4c(NCc5ccco5)nnnc4c23)CS1`, the Potency [13] is reported as active: 4.45 µM, the Potency [14] is reported as “inactive” and the Potency [15] is reported as inconclusive: 0.792 µM [rising, partial curve, poor fit].

With `COc1ccc(/C(O)=C2\C(=O)C(=O)N(c3cc(C)on3)C2c2ccccc2OC)cc1C` (configuration not stated) the activity change, negative = inhibition [1] was inactive: -17.1%, the activity change, negative = inhibition [2] was inconclusive: 32.1% [activator] and the Potency [5] was inconclusive: 3.98 µM [inhibitor, full curve].

With `COc1ccc(CCNc2oc(COc3ccccc3)nc2C#N)cc1` the activity change, negative = inhibition [1] was inactive: -23%, the activity change, negative = inhibition [2] was inconclusive: -37.6% [inhibitor] and the activation [5] was inconclusive: -1.81%.

In the case of `COC(=O)N1CCC2(CCCN(Cc3ccccc3)C2)CC1`, the activity change, negative = inhibition [1] is reported as inactive: -5.44% [at 7.69 µM], the activity change, negative = inhibition [2] is reported as inconclusive: -67% [inhibitor] [at 7.69 µM] and the activation [5] is reported as inactive: 3.12%.

In the case of `COc1cccc2c1C(=O)c1c(O)c3c(c(O)c1C2=O)C[C@@](O)(C(=O)CO)C[C@H]3O[C@H]1C[C@@H](N)[C@H](O)[C@@H](C)O1.[W]`, the activity change, negative = inhibition [1] is reported as inactive: 0.391% [at 7.69 µM], the activity change, negative = inhibition [2] is reported as inactive: -27.2% [at 7.69 µM] and the activation [5] is reported as inconclusive: -19.9%.

With `COC(=O)CC[C@@H](C)[C@@H]1CC[C@@H]2[C@@H]3CC[C@H]4C[C@@H](O)CC[C@@]4(C)[C@@H]3CC[C@]21C` the activity change, negative = inhibition [1] was inconclusive: 34.4% [activator] [at 7.69 µM], the activity change, negative = inhibition [2] was inconclusive: -59.3% [inhibitor] [at 7.69 µM] and the Potency [5] was inconclusive: 1 µM [cytotoxic, side channel, single point].

In the case of `CCOc1ccc(C2=Nn3c(nnc3-c3ccccc3OC)SC2)cc1`, the activity change, negative = inhibition [1] is reported as inconclusive: 6.67% [activator], the activity change, negative = inhibition [2] is reported as inconclusive: -41.2% [inhibitor] and the Potency [5] is reported as inconclusive: 0.1 µM [inhibitor, full curve].

In the case of `O=c1c2sc3nc(N4CCOCC4)c4c(c3c2ncn1Cc1ccco1)CCCC4`, the activity change, negative = inhibition [1] is reported as inconclusive: -48.2% [inhibitor], the activity change, negative = inhibition [2] is reported as inconclusive: -76.7% [inhibitor] and the Potency [5] is reported as inconclusive: 3.98 µM [inhibitor, full curve].

In the case of `C=CCc1cccc(CNc2nc3ccccc3n2C(C)C)c1O`, the activity change, negative = inhibition [1] is reported as inconclusive: -32.4% [inhibitor], the activity change, negative = inhibition [2] is reported as inconclusive: -58.2% [inhibitor] and the Potency [5] is reported as inconclusive: 10 µM [inhibitor, partial curve].

With `COC(=O)c1ccc(-c2sc3nc(N4CCOCC4)c4c(c3c2N)CCCC4)o1` the activity change, negative = inhibition [1] was inconclusive: -48.8% [inhibitor], the activity change, negative = inhibition [2] was inactive: -5.04% and the Potency [5] was inconclusive: 10 µM [fluorescent, side channel, partial curve].

For `COc1ccc(C(=O)C(CN2CCCC2)c2ccccc2)cc1` (configuration not stated), the activity change, negative = inhibition [1] was inconclusive: -32.7% [inhibitor], the activity change, negative = inhibition [2] was inconclusive: -114% [inhibitor] and the Potency [5] was inconclusive: 12.6 µM [inhibitor, single point].
